Assay results reported in the RNAGym collection of RNA variant scans (doi:10.7554/elife.90254).
The source gives no read counts; variants with many changes may rest on few reads.

B1: LINE1-full (parent)
chain: UACGUAGGUGGUUUUCCCCUGAUAGUGCUAAGGGGGCCUGGAAGUUUGGACUGGGCAGAGCUCAACACAGCGUGGCAAAGUGGCUGUGGCUAGACUGCCUCUCUGGAUUCCUCGUCACUCAGCAGGGCAUCUCUGAGAGAAAUGCC

Variants of: B1
Assay: self-cleavage, relative activity (ratio to wild type); higher = more cleavage; in vitro, sequencing; the parent is a self-cleaving ribozyme

| Variant | self-cleavage |
| --- | --- |
| A31C A43G A64G U91C | 0 |
| U39A A59G A69G U96A U104C A129U | 0 |
| C56U U108C A136G | 0.24 |
| U14A U46C U115C | 1.84 |
| U20C U73C U85A | 0.07 |
| U13A G75U U96A | 0.03 |
| U13A U20C A57G | 1.09 |
| U20A A69G A124G | 0.22 |
| U46C U91A A94G U132C | 0.5 |
| U9A U47C U108G | 1.23 |
| U13A C98U U102C U115A U132A | 0.26 |
| A42G U47A A57U A138G A140U | 0.03 |
| U46A A64U C113A U143C | 0.37 |
| A77U A78U C98A A138G | 0.27 |
| U47A G72A A124G A140G | 0.06 |
| U15C U85C U134A | 0 |
| A50G A67U G80A G86A U115A G139A | 0.02 |
| C84U U104C A136G | 0.19 |
| U13C A30U A140G | 0.36 |
| G4A A59G G126A | 0.09 |
| A42U A43U A78G | 0.38 |
| A43U U47C A69U | 0.02 |
| A22G U45C A64U U96G | 0.46 |
| U15A A22U C123U A124G | 0.37 |

| Variant | self-cleavage |
| --- | --- |
| A59U U85C U143C | 0.24 |
| U20C U26C G75U U143A | 0.46 |
| A2C U26A G93A U96C A138G U143C | 0.08 |
| U14C U73A U96C C98A G122U A140G | 0.04 |
| A69U C116A A142G | 0.02 |
| U52C A57C U85C G105A U115C | 0 |
| C19U A136G A140G | 1.08 |
| U5C G36C A65U | 0.24 |
| U13G A31U U46C | 1.21 |
| U9C U23C G36A U132C U134A C145U | 0.89 |
| U20C U23C A79G U96A U119C | 0 |
| U1C U87C U112C | 0.15 |
| G7C U62A U102C U109A | 1.84 |
| U81A G105A U115C U130C | 2.79 |
| U13C A79G U132C | 0.81 |
| U5C G93A U115G A121G | 0.21 |
| U45C U108C C111U A140G A142C | 1.26 |
| A2G A77U U85C G88C A94G A141C | 0 |
| U45C A64U U119A | 0.5 |
| U29C A77G U85A | 0.41 |
| A65U U73G A140U | 0.26 |
| A57G C111U A141G A142G | 0.77 |
| U13A U81A U102A | 0.89 |
| G21A A69U U143C | 0.04 |

| Variant | self-cleavage |
| --- | --- |
| G4A U52C U143C | 0.42 |
| G4A U46C U62C A124U | 0.06 |
| A30G A64G A92G A138G | 0 |
| U13C A31U A92G | 0.47 |
| U14C A50G U96C A138G | 0 |
| U46C U62C A107G | 0.26 |
| A22U G35A A78G | 0.5 |
| U13C U29C C110U U132C | 1.21 |
| A22G U73C U130C A141G | 2.3 |
| U14A U102C A136G A141G | 0.97 |
| U45A U52C A92G A117U | 0.04 |
| A22G A24G U104G | 0.77 |
| U9A A69C G72A U73C U100C | 0 |
| U46C U85C G89U | 0.03 |
| A24G A43G U87A A138G | 0.06 |
| U73C G89A U96C | 0.08 |
| U15G U73A G75U A107G | 0.19 |
| U47A U62C U100C A117G | 0.06 |
| A30G A78G U81C | 0 |
| U9G U46A U73G | 1.28 |
| G32A U47C A136C | 1.67 |
| U12C U14C C99A A121G | 1.02 |
| U87A U109A U143C | 0.15 |
| U15C G33A A50G U115C U134C C146U | 2.3 |

| Variant | self-cleavage |
| --- | --- |
| U12G U45C A64G | 0 |
| A43G U52C G53U U100A | 1.05 |
| A42G U87A A117G | 0 |
| A57U A79G C113U | 0.05 |
| U12C A31C C113A C128A U143C | 0.87 |
| A22G U52C U100A | 0.92 |
| G72A A77G G137A | 1.8 |
| A57U A64U U73A U115C | 0.08 |
| U13C G72U U134G | 0.98 |
| U62C U96A A121C | 0.07 |
| C16U U73C U109C G114A | 1.47 |
| U15C U52A A64G U85C | 0 |
| U14C U39C A59U | 0.5 |
| A124U A136U G144A | 1.38 |
| C3U U29G U104C U134C C146A | 1.15 |
| U12G U20A U45A U132C A138G A142G | 0.88 |
| C113U A140U A141G U143A | 0.66 |
| A65G U73A U96A | 0.03 |
| A30G A57G U87C A138G | 0.66 |
| G32A A77G A124G | 1.91 |
| U13C A22U A124G | 0.59 |
| U46C A117G A121U | 2.04 |
| U81C U102C U143C | 2.42 |
| C71A G86U G106U A121G | 0.03 |

| Variant | self-cleavage |
| --- | --- |
| A22G A78G U81C U115C | 0 |
| U9A U12C G44A G60C | 0.22 |
| U5C A92G U119A | 0.18 |
| U9A A22G U29A G70U | 0.22 |
| A94G U109A G114A | 0.15 |
| C37U U39C C51U A140G | 1.58 |
| U109C U115A A142G | 0 |
| U12C A65G C99A A121G | 0 |
| U39A U46A U100C A138U | 2.05 |
| U39C U104C U134C | 1.67 |
| U46A U112C A121C | 1.23 |
| A24U U39A A42G U130C | 0.94 |
| U85C G86A U134C U143C | 0.07 |
| A42G A43U A59G | 0.28 |
| A64U U96A U134A | 0.03 |
| U1A U14C A31U A121U | 1.33 |
| A24G U46C A117G | 1.11 |
| G10A A57U A67U U91C C99U | 0 |
| A107G A121U U134A | 0.66 |
| U9C U81A U91A A94G A142G | 0.63 |
| U39A A59G U108C U132C | 0.12 |
| C66A A78U A124U | 0.02 |
| G88A U108C C116U | 0.05 |
| U9A U26C A78G U119C | 2 |

| Variant | self-cleavage |
| --- | --- |
| U15A U45C U52A U115C | 1.97 |
| C61A A67G U143C | 0.15 |
| A79G G83A C113U | 0.65 |
| A69G G125U U134C | 0.55 |
| U14G U39A U45C C146U | 1.09 |
| C28U A78G U134C | 1.15 |
| A6G U13C A78G U102A | 1.66 |
| U26C U29C U47A A94G U119A | 0 |
| U5C U47C C103U A121G A138G | 1.15 |
| U39C A77G U109C A124U | 2.8 |
| A69G C113U A129G | 0.33 |
| A92U U115C A117G U143A | 0 |
| A24U U52A U132C | 2.46 |
| U15A A50U A64G U134C | 0.23 |
| U47C G54A U62G | 0.1 |
| U62A A77U U119C U130C | 0.07 |
| G34A A78G G106A U112C A136G | 1.2 |
| U81A U102A U130C | 2.78 |
| U14C U73A A136G | 2.03 |
| U26A U100C U112C | 1.84 |
| U5C U20A A59U U62C U96C | 0 |
| U14C U73C A77G A92U A129U | 0 |
| U23G A24U G72A A94G | 0.45 |
| A22G A57G U100C | 0.61 |

| Variant | self-cleavage |
| --- | --- |
| G33U A57U A124U | 0.11 |
| A65G U109C A136G | 0.19 |
| U13C U26C U73A U87A A136G | 0.16 |
| U91A U102C U119G | 0.16 |
| U47C A78G C113U U130A | 1.48 |
| U12C U29C U45C U130C | 1.31 |
| A65U G74A A77G A138G | 0.07 |
| U26C U39C G53A | 1.35 |
| U45C U96A U143A | 0 |
| U85A U130C A140G | 0.12 |
| U12G U20C A22U A107G U130C | 1.84 |
| A22G U45C G82A | 1.53 |
| U26C U87A A92G A141G | 0.07 |
| A79G U100A A129G | 0.49 |
| A42G U108C U119C U134A | 2.3 |
| A24U U81C U104A A141U A142U | 1.25 |
| U20C C37U U45A U62G U112C | 0.02 |
| A57G U85A A141G A142U | 0.07 |
| U9C U47A A77G U104C | 1.6 |
| G4A G53U C71A U96C U109C | 0.04 |
| U26C U29C G36A G74A A78G A129C | 1.1 |
| A2G U15C U115C | 0.46 |
| U46C A67U A69G G82A U100C A142G | 0.22 |
